Hit rate of the full screen: of about 280,000 compounds, about 1,100 (0.39%) were called active. This list was built around the results that the source calls inconclusive (neither active nor inactive); the mix of calls is not that of the screen. Calls follow the shape of the dose curve; as a rule, active = well fitted inhibition curve with a large enough effect; inconclusive = small, poorly fitted or top-dose-only effect, or effect the other way; inactive = flat fitted curve, though single readings scatter. No potency is given beside an inconclusive call; the fits are too rough. Where a SMILES comes first, the peptide text is derived from it. The star is where a group is joined. CH2Cl = ClC*
target: Microtubule-associated protein tau (Homo sapiens) (UniProt P10636); assay: qHTS for Inhibitors of Tau Fibril Formation, Fluorescence Polarization; settings: K18 P301L tau heparin fibrillization, Alexa594 FP, 6 h; series mostly up to 57.7 µM; also: nearly all actives have a fitted effect of over 55% in size
How it was run: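 FP of Alexa 594-tau after heparin (20 uM) induction. Substrate: human K18 P301L, 15 uM unlabeled, 0.24 uM labeled. Buffer 100 mM sodium acetate pH 7. 6 hr, 37 C.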
Potency is read from the fitted curve at half-maximal effect; tags tell the direction and shape of the fitted curve.

Sequence of UniProt P10636 (P10636 whole entry, looked up): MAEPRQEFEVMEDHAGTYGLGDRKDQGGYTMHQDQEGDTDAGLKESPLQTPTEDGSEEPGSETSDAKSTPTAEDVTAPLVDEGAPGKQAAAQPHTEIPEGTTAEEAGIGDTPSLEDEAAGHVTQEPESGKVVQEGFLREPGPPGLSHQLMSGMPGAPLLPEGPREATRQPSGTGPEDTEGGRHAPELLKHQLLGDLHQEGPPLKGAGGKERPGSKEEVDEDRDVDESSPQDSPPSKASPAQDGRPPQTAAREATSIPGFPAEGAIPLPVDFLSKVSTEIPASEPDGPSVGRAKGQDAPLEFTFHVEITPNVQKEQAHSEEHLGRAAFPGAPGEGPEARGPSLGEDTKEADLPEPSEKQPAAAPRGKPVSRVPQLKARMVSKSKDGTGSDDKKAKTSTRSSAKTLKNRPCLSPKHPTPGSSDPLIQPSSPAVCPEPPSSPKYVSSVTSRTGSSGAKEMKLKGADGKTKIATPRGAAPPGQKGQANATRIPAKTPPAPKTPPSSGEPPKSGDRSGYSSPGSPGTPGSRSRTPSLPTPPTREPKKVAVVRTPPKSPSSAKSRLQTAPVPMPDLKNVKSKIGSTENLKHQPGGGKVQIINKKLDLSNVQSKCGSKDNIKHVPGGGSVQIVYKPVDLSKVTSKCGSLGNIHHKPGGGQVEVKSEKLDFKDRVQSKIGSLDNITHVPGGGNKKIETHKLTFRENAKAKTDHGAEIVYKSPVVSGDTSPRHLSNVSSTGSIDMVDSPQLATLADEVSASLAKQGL

| Compound | Potency |
| --- | --- |
| O=C(c1ccc(Br)cc1)C12CN3CN(CN(C3)C1)C2 | inconclusive [inhibitor, single point] |
| COc1cc(/C=C/c2nc3ccccc3c(=O)n2-c2ccc(Br)c(C)c2)ccc1O | inconclusive [activator, partial curve] |
| NNCc1cccc(O)c1 | inconclusive [inhibitor, partial curve, poor fit] |
| Nc1c(C(=O)Nc2ccc(OC(F)(F)F)cc2)sc2nc3c(cc12)N1CCC3CC1 | inactive |
| COC(=O)[C@]1(C)CC[C@@]2(C)CC[C@@]3(C)C4=CC=C5C(=CC(=O)C(O)=C5C)[C@@]4(C)CC[C@@]3(C)C2C1 (some centres not stated) | inconclusive [inhibitor, partial curve] |
| O=C1/C(=C\c2ccccc2)C[C@@]2(O)[C@H]3Cc4ccc(O)c5c4[C@@]2(CCN3CC2CC2)[C@@H]1O5 | inconclusive [activator, single point] |
| CCNCCNc1ccc([N+](=O)[O-])c2cccnc12 | inactive |
| O=C(Cc1cc(=O)[nH][nH]1)N/N=C/c1cccc2ccccc12 | inconclusive [inhibitor, full curve] |
| CCn1c(C)cc(/C=C2\C(=O)NC(=O)N(c3ccccc3C)C2=O)c1C | inactive |
| Cc1cccc(N2C(=O)/C(=C/c3ccc(CN(CCC#N)S(C)(=O)=O)o3)C(=O)NC2=S)c1 | inconclusive [inhibitor, single point] |
| O=C1NC(=S)NC(=O)C1C/C=C/c1ccccc1 | inconclusive [inhibitor, partial curve, poor fit] |
| Cc1cccc(NC(=O)c2ccc(F)c(S(=O)(=O)N3CCN(c4ccc(F)cc4)CC3)c2)c1 | inconclusive [inhibitor, single point] |
| CC(C)(O)[C@H]1O[C@H]2CC[C@@]3(C)[C@@](O)(CC[C@H]4Cc5c([nH]c6ccccc56)[C@@]43C)C2=CC1=O | inconclusive [activator, partial curve, poor fit] |
| Cc1cc(C(C)(C)C)cc(C)c1CC1=NCCN1 | inconclusive [inhibitor, single point] |
| O=C1C=CC(=O)C(Cl)=C1 | active: 15.8 µM |
| O=C(OCC(=O)c1ccc([N+](=O)[O-])cc1)/C(=C/c1ccc(Cl)cc1)NC(=O)c1ccccc1 | inconclusive [inhibitor, partial curve, poor fit] |
| Cc1cc(C)cc(NC(=O)Cn2c(=O)oc3cc(S(=O)(=O)N4CC(C)CC(C)C4)ccc32)c1 (configuration not stated) | inconclusive [inhibitor, single point] |
| CCOc1ccc(-n2c(/C=C/c3ccccc3)nc3ccccc3c2=O)cc1 | inconclusive [inhibitor, single point] |
| O=c1[nH]c(O)c(/C=C2\C=NN=C2c2ccccc2)c(=O)[nH]1 | inactive |
| O=C1NO[C@H]2[C@@H]1CN[C@@H]2C(=O)O | inactive |
| O=c1[nH]c(=O)n(C2CCCCC2)c(O)c1C1=Nc2ccccc2SC(c2ccc(Cl)cc2)C1 (configuration not stated) | inconclusive [inhibitor, single point] |

| Compound | Potency |
| --- | --- |
| COc1cccc(C2=CC(c3cc(Br)ccc3F)n3nnnc3N2)c1 (configuration not stated) | inconclusive [inhibitor, single point] |
| N#Cc1cc2c(nc1SCC(=O)Nc1ccc(Cl)c(C(F)(F)F)c1)C1CCN2CC1 | inconclusive [inhibitor, single point] |
| O=C(Nc1nccs1)c1c(O)c2c(n(Cc3ccco3)c1=O)CCCC2 | inconclusive [inhibitor, partial curve, poor fit] |
| O=c1[nH]c(=O)n(CCc2ccc(F)cc2)c(O)c1/C=N/N1CCCCC1 | inconclusive [inhibitor, single point] |
| O=C1c2cc([N+](=O)[O-])ccc2-c2ncccc21 | inconclusive [activator, full curve, poor fit] |
| CN1CC=C2C(C#N)=C(N)C(C#N)(C#N)C(c3ccncc3)C2C1 (configuration not stated) | inconclusive [inhibitor, partial curve] |
| O=P(NS(=O)(=O)c1ccc(Cl)cc1)(Oc1ccccc1)Oc1ccccc1 | inactive |
| Cc1ccccc1-n1c(O)c(C=Nc2ccc(N(C)C)cc2)c(=O)[nH]c1=O | inconclusive [inhibitor, single point] |
| CCOC(=O)[C@]1(C#N)[C@@H]2C=CC(C(C)=O)=CN2[C@@H](C(N)=O)[C@@H]1c1ccsc1 | inconclusive [inhibitor, single point] |
| COc1cc(CN=Cc2c(O)n(Cc3ccccc3)c(=S)[nH]c2=O)cc(OC)c1 | inconclusive [inhibitor, single point] |
| COc1cc(/C=N/NP(=S)(c2ccccc2)c2ccccc2)ccc1O | inactive |
| C=CCN1CCC23c4c5ccc(O)c4OC2/C(=N/N=C2\CCC4(O)C6Cc7ccc(O)c8c7C4(CCN6CC=C)C2O8)CCC3(O)C1C5 (configuration not stated) | inconclusive [inhibitor, single point] |
| COc1ccc(-n2c(/C=C3\C(=O)Nc4ccccc43)nc3ccccc3c2=O)cc1 | inactive |
| CN(C(=O)Cc1ccc(Cl)c(Cl)c1)[C@H](CN1CCCC1)c1cccc(N=C=S)c1 | inconclusive [inhibitor, partial curve] |
| Cc1c(C)n(O)c2ccc3nonc3c12 | inconclusive [inhibitor, single point] |
| COC(=O)C1C(OC(=O)c2ccccc2)CC2CCC1N2C (configuration not stated) | inconclusive [inhibitor, single point] |
| COCCN1C(=O)NC(=O)/C(=C\c2ccc(F)cc2)C1=O | inconclusive [inhibitor, partial curve, poor fit] |
| Cc1cccc(Cn2cccc(C(=O)Nc3nc4ccccc4s3)c2=O)c1 | inconclusive [inhibitor, partial curve] |
| O=C1NC(=O)C2(Cc3ccccc3N3CCCC32)C(=O)N1Cc1ccccc1 (configuration not stated) | inconclusive [inhibitor, partial curve] |
| O=C(CNC(=O)c1cccs1)NCC(=O)OCC(=O)c1ccc([N+](=O)[O-])cc1 | inconclusive [inhibitor, single point] |
| O=C(NCc1ccc2c(c1)CCN2C(=O)c1ccccc1)Nc1cccc(C(F)(F)F)c1 | inconclusive [inhibitor, partial curve] |

| Compound | Potency |
| --- | --- |
| O=C(Nc1ccc(OC(F)(F)F)cc1)c1cccn(Cc2ccccc2Cl)c1=O | inconclusive [inhibitor, partial curve] |
| CCCCN1CCC(O)(c2ccccc2)C(C(=O)c2ccccc2)C1 (configuration not stated) | inactive |
| CN1CC[C@@H]2CN3CCc4cccc(c43)[C@@H]2C1 | inconclusive [inhibitor, full curve] |
| CCN(CC)c1ccc(CC2C(=O)N(C)C(=O)N(C)C2=O)cc1 | inconclusive [activator, full curve, poor fit] |
| Clc1ccc(Cl)cc1 | inactive |
| Cc1cccc(CN2C(=O)CN=C(c3ccccc3Cl)c3cc(Cl)ccc32)c1 | inactive |
| C=C(C)C(=O)CP(=O)(OCC)OCC | inactive |
| C[C@H](N)C(=O)N[C@@H](C)C(=O)N[C@@H](Cc1ccccc1)C(=O)CCl (H-Ala-Ala-Phe-CH2Cl) | inconclusive [inhibitor, single point] |
| CCOP(=O)(C1=C(O)C(=O)C(C(C)(C)C)=CC1=O)c1ccccc1 (configuration not stated) | inconclusive [inhibitor, single point] |
| CCc1ccc(Nc2nc3c(S(=O)(=O)c4ccc(C)cc4)nnn3c3ccsc23)cc1 | inconclusive [inhibitor, partial curve] |
| c1cncc([C@@H]2CCCCN2)c1 | inactive |
| Cc1cc(Br)ccc1N1C(=O)CC(=O)NC1=O | inconclusive [inhibitor, partial curve, poor fit] |
| COCCNC(=O)c1c(NC(=O)c2ccco2)n(Cc2ccccc2)c2nc3ccccc3nc12 | inconclusive [inhibitor, partial curve] |
| N#CC(C#N)=Cc1cc(O)c(O)c([N+](=O)[O-])c1 | inconclusive [inhibitor, partial curve] |
| COC[C@H]([C@@H](O)[C@@H](O)C(=O)NCC[C@@H](C)c1nc(/C=C/C[C@H]2OC3(C[C@H](O)[C@H]2C)OC([C@@H](C[C@@H](O)[C@@H](C)[C@@H](O)[C@@H](C)/C=C(C)/C(C)=C/C=C/C(C)=C\C#N)OC)[C@@H](OP(=O)(O)O)C3(C)C)co1)N(C)C (some centres not stated) | inactive |
| CCCCn1c(=O)c(C=Nc2cc([N+](=O)[O-])ccc2OC)c(O)n(CCCCl)c1=O | inconclusive [activator, partial curve, poor fit] |
| CCOC(=O)c1c(C)n(C(C)C)c2ccc(OC(=O)c3ccc(N4C(=O)CCC4=O)cc3)cc12 | inconclusive [inhibitor, single point] |
| Cc1ccc(N/N=C/c2c(O)n(-c3ccccc3)c(=O)[nH]c2=O)cc1 | inconclusive [inhibitor, single point] |
| CCN(CC)c1ccc(/C=C2/C(=O)NC(=O)N(Cc3ccco3)C2=O)cc1 | inconclusive [inhibitor, single point] |
| CNc1ccc2oc(C[C@@H]3OC4(CC[C@@H]3C)O[C@H](C(C)C(=O)c3ccc[nH]3)[C@H](C)C[C@H]4C)nc2c1C(=O)O (some centres not stated) | inactive |

Source: PubChem BioAssay AID1468 (National Center for Advancing Translational Sciences (NCATS), 2008)
